Experimental data reported in paper PMC4336329 (PLoS ONE, 2015).
Hit rate of the full screen: of about 310,000 compounds, about 14,000 (4.5%) showed an effect of 50% or more. The effect is printed as a negative number. The list shows a part of the results.

target: human ether-à-go-go-related gene (hERG) potassium channel (human, UniProt Q12809); experiment: primary screen, population patch clamp on CHO cells stably expressing hERG
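Also: peak tail current of the secondary pulse compared with the same well before compound.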

Chain of human ether-à-go-go-related gene (hERG) potassium channel (Q12809 whole entry, looked up): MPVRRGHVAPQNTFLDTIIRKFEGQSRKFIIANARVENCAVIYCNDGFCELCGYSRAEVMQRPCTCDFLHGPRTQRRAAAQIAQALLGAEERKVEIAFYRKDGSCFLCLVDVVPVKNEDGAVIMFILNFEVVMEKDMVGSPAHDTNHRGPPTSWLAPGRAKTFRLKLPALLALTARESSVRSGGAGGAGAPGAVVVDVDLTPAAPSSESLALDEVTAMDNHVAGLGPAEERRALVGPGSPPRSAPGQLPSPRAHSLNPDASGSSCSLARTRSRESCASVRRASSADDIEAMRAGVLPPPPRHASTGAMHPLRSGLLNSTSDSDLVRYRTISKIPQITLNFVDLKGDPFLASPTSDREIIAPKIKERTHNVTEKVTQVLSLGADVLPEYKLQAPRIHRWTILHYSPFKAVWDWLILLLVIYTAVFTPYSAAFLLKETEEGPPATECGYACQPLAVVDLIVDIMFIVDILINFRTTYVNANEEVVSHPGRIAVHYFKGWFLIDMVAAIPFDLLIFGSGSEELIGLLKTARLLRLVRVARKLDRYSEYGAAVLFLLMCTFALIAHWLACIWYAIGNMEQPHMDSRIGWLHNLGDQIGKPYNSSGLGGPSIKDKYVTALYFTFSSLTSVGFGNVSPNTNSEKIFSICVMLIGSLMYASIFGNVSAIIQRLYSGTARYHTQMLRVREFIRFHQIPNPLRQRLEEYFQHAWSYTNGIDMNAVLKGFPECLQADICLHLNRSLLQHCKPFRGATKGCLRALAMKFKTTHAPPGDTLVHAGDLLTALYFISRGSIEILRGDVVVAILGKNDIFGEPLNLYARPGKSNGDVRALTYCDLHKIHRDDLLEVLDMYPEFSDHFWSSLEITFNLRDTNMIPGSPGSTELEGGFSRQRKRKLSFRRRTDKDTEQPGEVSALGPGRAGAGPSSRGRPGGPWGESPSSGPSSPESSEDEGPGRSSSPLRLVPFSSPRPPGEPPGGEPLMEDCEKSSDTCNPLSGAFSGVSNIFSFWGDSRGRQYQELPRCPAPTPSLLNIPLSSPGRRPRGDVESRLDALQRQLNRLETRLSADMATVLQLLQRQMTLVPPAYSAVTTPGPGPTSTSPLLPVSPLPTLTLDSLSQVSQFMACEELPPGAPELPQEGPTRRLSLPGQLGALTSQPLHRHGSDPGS

SMILES | hERG current change (%, negative = inhibition) at 10uM [%]
COc1cc(C(=S)N2CCOCC2)ccc1OC(=O)c1cc([N+](=O)[O-])c(C)c([N+](=O)[O-])c1 | 29.4
Cc1ccc(NC(=O)c2ccc3ncsc3c2)cc1S(=O)(=O)N(C)C | -11.9
COc1cc(/C=N/OCC(=O)NC23CC4CC(CC(C4)C2)C3)ccc1OCc1ccccc1 | 19.6
O=C(Nc1nncs1)c1cccc(S(=O)(=O)N2CCc3ccccc32)c1 | -5.05
CCn1cc(CN2CCC(C(=O)Nc3ccc(Oc4ccccc4)nc3)CC2)cn1 | -30.3
Cc1nc(C(=O)O)sc1C1(C)CC(c2cccc([N+](=O)[O-])c2)=NO1 (centres unmarked) | -5.77
O=[N+]([O-])c1ccc(N2CCN(C(=S)NCc3ccc(Cl)cc3)CC2)cc1 | -8.05
O=C(NCc1ccccc1)NC1CCS(=O)(=O)C1 (centres unmarked) | 13.6
CC1=Nn2c(nnc2-c2n[nH]c3c2CCC3)SC1 | 8.18
Cc1cc(=O)n(C2CCS(=O)(=O)C2)[nH]1 (centres unmarked) | 14.7
Clc1ccc(-n2ncc3c(NCc4ccccn4)ncnc32)cc1 | 4.15
CS(=O)(=O)N1CCN(c2ccccc2NC(=S)NC(=O)c2ccco2)CC1 | -1.12
CCOC(=O)Cc1csc(NC(=O)/C=C/c2ccco2)n1 | -10.1
Nc1cccc(S(=O)(=O)c2ccc(N)c(N)c2)c1 | 21.4
Cn1c(=O)c2c(SCC(=O)Nc3ccccc3F)nc(C3CC3)nc2n(C)c1=O | -3.79
COc1ccc2c3c(c(=O)oc2c1OCC(=O)C(C)(C)C)CCCC3 | 2.28
CN(C)S(=O)(=O)c1ccc(NC(=O)CSc2n[nH]c(=O)n2C2CC2)cc1 | 47.2
CCNC(=O)NC(=O)C(C)On1nnc2ccc(S(=O)(=O)N(CC)CC)cc21 (centres unmarked) | 3.03
O=C(c1nnc(Cc2ccc(Cl)cc2)o1)N1CCc2ccccc2C1 | -14.8
Cc1occc1C(=O)NNC(=O)c1ccc(Br)o1 | 21.8
O=C(c1cc(-c2cccs2)on1)N1CCc2ccccc2C1 | 2.17
Clc1c(-c2nnc3n2CCCCC3)sc2ccccc12 | -13.9

SMILES | hERG current change (%, negative = inhibition) at 10uM [%]
Cc1nnc(SC(C)C(=O)Nc2ccc(S(=O)(=O)NC3CCCCC3)cc2)s1 (centres unmarked) | -0.964
Cc1ccc2cc(C3C(C#N)=C(N)Oc4c3ccc3cccnc43)c(=O)[nH]c2c1 (centres unmarked) | -21.5
CCOC(=O)c1[nH]c2ccc(OC)cc2c1NC(=S)N1CCN(c2ccccn2)CC1 | -6.45
Cc1cccc(C(C(=O)NC2CCCC2)N(C(=O)c2csnn2)C2CC2)c1 (centres unmarked) | -30.1
CC(C)[C@H](NC(=O)OCc1ccccc1)C(=O)OCC(=O)NC1(C#N)CCCC1 | 17.3
COc1ccccc1-c1ocnc1C(=O)N1CCN(S(=O)(=O)c2ccc(NC(C)=O)cc2)CC1 | 2.61
COc1ccc(O)c(/C=N/Nc2nc3ccccc3[nH]2)c1 | -23.7
Cc1ccc(S(=O)(=O)CC(=O)c2ccc(C)c([N+](=O)[O-])c2)cc1 | 2.91
CS(=O)(=O)c1ccc(C(=O)NCC(c2ccco2)N2CCCCC2)cc1 (centres unmarked) | 18
CCOC(=O)c1c(C)[nH]c(C)c1C(=O)CN1C(=O)NC2(CCC(C)CC2)C1=O (centres unmarked) | 12.9
COc1ccccc1NC(=O)CCC(=O)N1CC(C)Oc2ccc(C)cc21 (centres unmarked) | -1.81
O=C(c1cnc2n(c1=O)CCS2)N1CCN(C(c2ccccc2)c2ccc(Cl)cc2)CC1 (centres unmarked) | -52.4
O=C(NCC(=O)N(c1ccccc1)C(C(=O)NC1CCCCC1)c1cccnc1)c1ccco1 (centres unmarked) | 6.65
CC(C)OC(=O)CSc1nnnn1-c1ccc2c(c1)OCCO2 | -2.67
O=C(N/N=C/c1cccc(OCc2ccccc2)c1)c1cccs1 | -1.15
CCOC(=O)C1=C(N)OC2=C(C(=O)CCC2)C1c1ccc(C)s1 (centres unmarked) | -54.3
O=C(CN1CCCCCC1)Nc1ccccc1Oc1ccccc1 | -7.84
O=C(Nc1c(F)cccc1F)c1ccc2c(c1)CCN2S(=O)(=O)c1ccccc1 | 7.22
COC(=O)CCCC(=O)Nc1ccc(Cl)c(Cl)c1 | -3.49
COc1ccc(C(=O)Cn2c(Br)nc3c2c(=O)n(C)c(=O)n3C)cc1 | -10.6
COc1ccc2nc(Cl)c(/C=N/Nc3ccccn3)cc2c1 | 18.8
Cc1cc(C)c[n+](-c2nc([O-])sc2C=O)c1 | 8.38

SMILES | hERG current change (%, negative = inhibition) at 10uM [%]
Cc1ccc(C2C=NN(c3ccccc3)C2=O)cc1 (centres unmarked) | 23.7
Cn1cnnc1Sc1ccc(/C=C(\CC(=O)O)c2nc3ccccc3s2)cc1[N+](=O)[O-] | 6.84
Cc1c(C(=O)Nc2ccc(Cl)cc2)c2ccccn2c1C(=O)c1ccc(F)cc1 | -7.82
Fc1ccc(N=C2NN=C(c3cc(F)ccc3F)CS2)cc1 | -13
Cc1cc(C)n2cc(CSc3nc4ccccc4[nH]3)nc2n1 | -4.83
COC(=O)CSc1snnc1-c1ccc(Cl)c(Cl)c1 | 11.5
CCC1=C(OC(=O)N(CC)CC)N2C(=O)OC(=NCC(=O)OC)[C@]2(C)[C@H]2C1=CC[C@H]1C(=O)N(CC(=O)OC)C(=O)[C@H]12 | 2.59
COCCn1c(SCC(=O)NCC2CCCO2)nc2c(c1=O)SC(C)C2 (centres unmarked) | 20.4
CC(=O)c1cccc(NC(=O)CCc2nc3sc4c(c3c(=O)[nH]2)CCCC4)c1 | -3.33
COc1ccc(O)c(/C=N/Nc2nc(C)cc(-c3ccccc3)n2)c1 | -1.82
O=C(CC1C(=O)NCCN1CC1CCCCC1)NCc1ccc(F)cc1F (centres unmarked) | 4.98
Cc1ccc2cc3cc(C(=O)N4CCC5(CC4)OCCO5)oc3nc2c1 | 1.57
C=C[C@@H]1c2ccccc2N(S(=O)(=O)c2ccc(C)cc2)[C@H](c2ccc(C(F)(F)F)cc2)C1(C#N)C#N | 5.54
COc1ccc(/C=C2\SC(=S)N(CCCC(=O)Nc3ccccc3C(=O)O)C2=O)cc1OC | 6
O=[N+]([O-])c1cccc(-c2nnc3ccc4ccccc4n23)c1 | -38.6
CN(C)CCCN(C(=O)C1=COCCO1)c1nc2ccc(Br)cc2s1.Cl | -67.2
O=C(/C=C/c1cccc([N+](=O)[O-])c1)Nc1ccc(NC(=O)c2cccs2)cc1 | 5.79
CCN(Cc1ccccc1)S(=O)(=O)c1c(C)[nH]c(C)c1C(=O)N1CCCC1 | 6.06
NC(=O)c1cc(C(=O)c2cccc(Cl)c2Cl)c[nH]1 | -3.85
CCOC(=O)c1ccc(Cl)c(NC(=O)c2ccc(-c3ccccc3)cc2)c1 | 1.02
O=C1Nc2ccccc2C(=O)N2CCCCC12 (centres unmarked) | 14.2
O=C(c1ccc([N+](=O)[O-])cc1)N1CCCC1 | 4.5

SMILES | hERG current change (%, negative = inhibition) at 10uM [%]
CCn1c(SCC(=O)c2ccccc2)nnc1-c1cnccn1 | -8.6
Cc1ccc2cccc(NC(=S)NC(=O)c3ccnn3C)c2n1 | 13.7
CC1CCCC(NC(=O)C2CCN(S(=O)(=O)c3cccc4nonc34)CC2)C1C (centres unmarked) | 4.71
Cn1c(-c2ccccc2)cnc1NCc1cccc([N+](=O)[O-])c1 | -72
C/C(N)=C(/C#N)C(=O)COC(=O)C1CCC(C(C)(C)C)CC1 (centres unmarked) | -7.3
COc1ccc(-c2nnc(SCc3ccccc3F)o2)cc1 | 1.79
Cc1ccc2nc(Cc3ccc(N)cc3)oc2c1 | 0.517
Cc1ccc2cc(CN(Cc3ccco3)C(=O)NCc3ccccc3)c(=O)[nH]c2c1C | 4.33
CS(=O)(=O)Nc1ccc(Cc2noc(-c3ccc4[nH]cc(CCN)c4c3)n2)cc1.O | 13.9
CCN(CC(=O)N1CCOCC1)S(=O)(=O)c1ccc(F)cc1 | 10.6
COc1ccc(NC(=O)c2ccccc2Sc2ccc(NC(C)=O)nc2)cc1 | 13.1
Cc1c(C(C)C)c(=O)n(-c2ccc(S(=O)(=O)NCc3ccccc3)cc2)n1C | -16.8
O=C(Nc1ccccc1)NC1CCN(Cc2c(F)cccc2Cl)CC1 | 7.91
Cc1cccc(NC(=O)CSc2nnc(-c3ccco3)n2CC2CCCO2)n1 (centres unmarked) | -23.4
COc1cc2c(cc1OC)C(c1cccc(C)c1)CC(=O)N2 (centres unmarked) | -10.5
CCC1(CC)Nc2ccccc2C(=O)N1c1ccc(OC)cc1 | -2.91
O=C(CC1C(=O)NCCN1Cc1ccccc1)NC1CCCCCC1 (centres unmarked) | 8.11
CCOc1cc(/C=C(\C#N)C(=O)Nc2ccc(S(N)(=O)=O)cc2)ccc1OCCN1CCOCC1 | 9.26
CS(=O)(=O)N(CCc1ccccc1)CC(=O)Nc1ccccc1 | 6.23
O=C(O)c1cc2c(=O)c3ccccc3oc2nc1C(F)(F)F | 17.7
